Experimental findings from paper PMC11995724, “Antibiotic target discovery by integrated phenotypic and activity-based profiling of electrophilic fragments” (Cell chemical biology, 2025) are described below.

Each structure is given as a SMILES string. Among all 3,200 compounds or so, about 75 (2%) showed an effect of 50% or more. The list shows a part of the results.

For this experiment, the system named is T1, S. aureus MSSA476.
T1 construct: MSSA476
More on the design: species or system S. aureus MSSA476 (TSB) or V. cholerae SAD30 (LB); 384-well bacterial growth screen at 25 uM, OD600 relative to DMSO control. The note with it: relative growth, OD600, TSB; 25 µM; inhibitor.
As to `C=CC(=O)N(Cc1c(C)cc(Cl)cc1C)CC1COCCO1` (centres unmarked) [1-J09, N-[(4-chloro-2,6-dimethylphenyl)methyl]-N-[(1,4-dioxan-2-yl)methyl]prop-2-enamide], the “% of control remaining” value worked out at 116.747%.

Consider `Cc1c(NC(=O)CCl)cccc1[N+](=O)[O-]` [4-E07, 2-chloro-N-(2-methyl-3-nitrophenyl)acetamide], for which the “% of control remaining” value is reported as 81.5626%.

For `O=C(CCl)NC(c1ccccc1)C1CCCCC1` (centres unmarked) [6-E12, 2-chloro-N-[cyclohexyl(phenyl)methyl]acetamide], the “% of control remaining” value is reported as 99.7073%.

For `C=CC(=O)Nc1cccc(-c2cn(C)nn2)c1` [1-K14, N-[3-(1-methyl-1H-1,2,3-triazol-4-yl)phenyl]prop-2-enamide], the “% of control remaining” value is recorded as 102.33%.

As for `CC(=O)NCc1ccc(C2CCCN2C(=O)CCl)o1` (centres unmarked) [5-P13, N-({5-[1-(2-chloroacetyl)pyrrolidin-2-yl]furan-2-yl}methyl)acetamide], the “% of control remaining” value turned out to be 100.182%.

In the case of `C=CC(=O)N1CCN(S(C)(=O)=O)[C@H](C)C1` [1-G15, 1-[(3R)-4-methanesulfonyl-3-methylpiperazin-1-yl]prop-2-en-1-one], the “% of control remaining” value amounted to 111.824%.

With `CCOC(=O)c1c(NC(=O)CCl)sc(C)c1C` [4-O15, ethyl 2-(2-chloroacetamido)-4,5-dimethylthiophene-3-carboxylate], the “% of control remaining” value is listed as 72.7966%.

Regarding `CC(Cl)C(=O)Nc1ccc(F)c(Cl)c1` (centres unmarked) [4-A04, 2-chloro-N-(3-chloro-4-fluorophenyl)propanamide], the “% of control remaining” value is 117.389%.

Turning to `CC(Cl)C(=O)Nc1ccc(S(=O)(=O)N2CCCCC2)cc1` (centres unmarked) [4-A12, 2-chloro-N-[4-(piperidine-1-sulfonyl)phenyl]propanamide], the “% of control remaining” value was found to be 150.929%.

On to `CC(C)NC(=O)C(C#N)=Cc1cccc(Cl)c1` [9-A13, 3-(3-chlorophenyl)-2-cyano-N-(propan-2-yl)prop-2-enamide], for which the “% of control remaining” value is 115.955%.

`COc1ccc(C=C(C#N)C(=O)Nc2cccc(C)c2)cc1` [8-M03, 2-cyano-3-(4-methoxyphenyl)-N-(3-methylphenyl)prop-2-enamide]: the “% of control remaining” value stood at 138.091%.

In the case of `CC(Cl)C(=O)N1CCN(C(c2ccccc2)C(F)(F)F)CC1` (centres unmarked) [6-P16, 2-chloro-1-[4-(2,2,2-trifluoro-1-phenylethyl)piperazin-1-yl]propan-1-one], the “% of control remaining” value worked out at 82.2927%.

In the case of `Cl.Cn1ccc(-c2nc(CNC(=O)CCl)cs2)n1` [6-B09, 2-chloro-N-{[2-(1-methyl-1H-pyrazol-3-yl)-1,3-thiazol-4-yl]methyl}acetamide hydrochloride], the “% of control remaining” value is 91.5122%.

On to `C=CC(=O)Nc1ccc(C(=O)N2C[C@H](O)C[C@H]2C(=O)OC)cc1` [2-O21, methyl (2S,4R)-4-hydroxy-1-[4-(prop-2-enamido)benzoyl]pyrrolidine-2-carboxylate], for which the “% of control remaining” value was found to be 107.572%.

Consider `O=C(CCl)C1CCCC2(CC2)C1` (centres unmarked) [10-E11, 2-chloro-1-{spiro[2.5]octan-5-yl}ethan-1-one], for which the “% of control remaining” value is reported as 103.438%.

For the compound `Cn1nc(C(F)(F)F)cc1CN(C(=O)CCl)C1CCCC1` [5-C16, 2-chloro-N-cyclopentyl-N-{[1-methyl-3-(trifluoromethyl)-1H-pyrazol-5-yl]methyl}acetamide], the “% of control remaining” value stood at 105.282%.

On to `Cc1ccc(N(CCC#N)C(=O)CCl)cc1C` [4-A03, 2-chloro-N-(2-cyanoethyl)-N-(3,4-dimethylphenyl)acetamide], for which the “% of control remaining” value amounted to 93.7589%.

In the case of `C=CC(=O)NCc1ccccc1S(=O)(=O)N1CCOCC1` [3-H22, N-{[2-(morpholine-4-sulfonyl)phenyl]methyl}prop-2-enamide], the “% of control remaining” value is 75.2286%.

`O=C(CCl)NCCCC(=O)N1CCCC1` [7-N08, 2-chloro-N-[4-oxo-4-(pyrrolidin-1-yl)butyl]acetamide]: the “% of control remaining” value came to 108.32%.

As to `O=C1C=CC(=O)N1c1ccc(F)c(Cl)c1` [10-D15, 1-(3-chloro-4-fluorophenyl)-2,5-dihydro-1H-pyrrole-2,5-dione], the “% of control remaining” value is listed as 109.688%.

In the case of `Cc1c(C=C(C#N)C(=O)Nc2ccccn2)cc(C#N)n1C` [8-G06, 2-cyano-3-(5-cyano-1,2-dimethyl-1H-pyrrol-3-yl)-N-(pyridin-2-yl)prop-2-enamide], the “% of control remaining” value was 98.5892%.

Regarding `Cc1cc(C)cc(N(CCC#N)C(=O)CCl)c1` [5-P18, 2-chloro-N-(2-cyanoethyl)-N-(3,5-dimethylphenyl)acetamide], the “% of control remaining” value is listed as 95.4463%.

In the case of `COc1cc([N+](=O)[O-])ccc1N1C(=O)C=CC1=O` [10-H13, 1-(2-methoxy-4-nitrophenyl)-2,5-dihydro-1H-pyrrole-2,5-dione], the “% of control remaining” value was 101.563%.

`Cc1nc(-c2cccc(NC(=O)CCl)c2)cs1` [5-K17, 2-chloro-N-[3-(2-methyl-1,3-thiazol-4-yl)phenyl]acetamide]: the “% of control remaining” value is recorded as 93.6248%.

Consider `CC(Cl)C(=O)Nc1ccc([N+](=O)[O-])cc1C#N` (centres unmarked) [5-I15, 2-chloro-N-(2-cyano-4-nitrophenyl)propanamide], for which the “% of control remaining” value stood at 102.368%.

For `N#CC(=Cc1ccc(Cl)cc1)C(=O)Nc1cccc2c1C(=O)NC2=O` [9-D09, 3-(4-chlorophenyl)-2-cyano-N-(1,3-dioxo-2,3-dihydro-1H-isoindol-4-yl)prop-2-enamide], the “% of control remaining” value was 103.371%.

As to `C=CC(=O)NC(CN1CCCS1(=O)=O)C1CC1` (centres unmarked) [1-H10, N-[1-cyclopropyl-2-(1,1-dioxo-1lambda6,2-thiazolidin-2-yl)ethyl]prop-2-enamide], the “% of control remaining” value was 87.5604%.

Take `C=CC(=O)Nc1ccc(C(=O)N[C@H]2COC[C@@H]2OC)cc1` (racemic) [3-C08, rac-N-[(3R,4S)-4-methoxyoxolan-3-yl]-4-(prop-2-enamido)benzamide]: the “% of control remaining” value was 97.1702%.

Consider `CC(Cl)C(=O)NCCc1nnc2n1CCCCC2` (centres unmarked) [7-D09, 2-chloro-N-(2-{5H,6H,7H,8H,9H-[1,2,4]triazolo[4,3-a]azepin-3-yl}ethyl)propanamide], for which the “% of control remaining” value is 92.3077%.

As to `CCS(=O)(=O)c1ccc(NC(=O)CCl)c(O)c1` [4-P21, 2-chloro-N-[4-(ethanesulfonyl)-2-hydroxyphenyl]acetamide], the “% of control remaining” value turned out to be 107.861%.

`Cc1cc(C(=O)CCl)c(C)n1CCc1ccc(F)cc1` [10-G14, 2-chloro-1-{1-[2-(4-fluorophenyl)ethyl]-2,5-dimethyl-1H-pyrrol-3-yl}ethan-1-one]: the “% of control remaining” value is 123.75%.

With `C=CC(=O)N(C)CC(=O)N1CCC[C@H](NC(=O)C(F)(F)F)[C@@H]1C` (racemic) [2-A20, rac-N-methyl-N-{2-[(2R,3R)-2-methyl-3-(2,2,2-trifluoroacetamido)piperidin-1-yl]-2-oxoethyl}prop-2-enamide], the “% of control remaining” value is reported as 147.607%.

As to `CCCNC(=O)C(C#N)=Cc1ccns1` [9-G03, 2-cyano-N-propyl-3-(1,2-thiazol-5-yl)prop-2-enamide], the “% of control remaining” value is 134.831%.

On to `COc1cc(C=C(C#N)C(=O)NC2CC2)ccc1O` [9-G12, 2-cyano-N-cyclopropyl-3-(4-hydroxy-3-methoxyphenyl)prop-2-enamide], for which the “% of control remaining” value was 96.4794%.

As to `N#CC(=Cc1ccccc1OC(F)F)C(=O)Nc1ccccc1F` [8-K21, 2-cyano-3-[2-(difluoromethoxy)phenyl]-N-(2-fluorophenyl)prop-2-enamide], the “% of control remaining” value is 118.506%.

Take `CC(C)c1cc(O)nc(N2CCC(NC(=O)CCl)C2)n1` (centres unmarked) [4-D13, 2-chloro-N-{1-[4-hydroxy-6-(propan-2-yl)pyrimidin-2-yl]pyrrolidin-3-yl}acetamide]: the “% of control remaining” value is 105.193%.

As for `Cc1noc(C)c1S(=O)(=O)N1CCCN(C(=O)C(C)Cl)CC1` (centres unmarked) [7-O11, 2-chloro-1-{4-[(3,5-dimethyl-1,2-oxazol-4-yl)sulfonyl]-1,4-diazepan-1-yl}propan-1-one], the “% of control remaining” value worked out at 98.2732%.

On to `Cl.O=C(CCl)NCC1CN(Cc2ccccc2)CC12CCC2` (centres unmarked) [7-H03, N-({6-benzyl-6-azaspiro[3.4]octan-8-yl}methyl)-2-chloroacetamide hydrochloride], for which the “% of control remaining” value is 94.5055%.

Regarding `COc1ccc(C=C(C#N)C(=O)Nc2cccc([N+](=O)[O-])c2)cc1` [8-I03, 2-cyano-3-(4-methoxyphenyl)-N-(3-nitrophenyl)prop-2-enamide], the “% of control remaining” value was determined as 124.813%.

On to `Cc1cc(C(=O)CCl)c(C)n1CCC(C)C` [10-L03, 2-chloro-1-[2,5-dimethyl-1-(3-methylbutyl)-1H-pyrrol-3-yl]ethan-1-one], for which the “% of control remaining” value amounted to 114.687%.

Regarding `C=CC(=O)NC1(Cc2ccccc2)CC1` [3-P13, N-(1-benzylcyclopropyl)prop-2-enamide], the “% of control remaining” value worked out at 84.9804%.

Consider `N#CC(C(=O)CCl)=C(c1ccc(F)cc1)N1CCOCC1` [10-C20, 4-chloro-2-[(4-fluorophenyl)(morpholin-4-yl)methylidene]-3-oxobutanenitrile], for which the “% of control remaining” value is given as 107.5%.

Consider `O=C(CCl)NC1CN(C(=O)C2CC2)C1` [6-P22, 2-chloro-N-(1-cyclopropanecarbonylazetidin-3-yl)acetamide], for which the “% of control remaining” value is reported as 91.1707%.

Regarding `COc1ccc(C=C(C#N)C(=O)Nc2ccc(C)cc2)cc1O` [9-O12, 2-cyano-3-(3-hydroxy-4-methoxyphenyl)-N-(4-methylphenyl)prop-2-enamide], the “% of control remaining” value is 114.757%.
